# Measured values taken from the supplement of paper PMC11283458.
# Counter-ions that a name gives are not always drawn. This is one part of the list. Repeats are few or missing, and single values can be far off.
# Columns and labels:
# [1] = system: Mef2d microexon dual Nano/Firefly luciferase splicing reporter in Neuro-2a cells; test: B-score of Firefly/Nano luminescence ratio, V1 Mef2d microexon reporter (B-score (plate-normalised)); higher = more Mef2d microexon inclusion; settings: 24 h
# [2] = system: Mef2d microexon dual Nano/Firefly luciferase splicing reporter in Neuro-2a cells; test: B-score of Nano/Firefly luminescence ratio, V2 Mef2d microexon reporter (B-score (plate-normalised)); higher = more Mef2d microexon inclusion; settings: 24 h
# [3] = system: Ergic3 microexon (endogenous); test: delta PSI of alternative exon relative to 0.4% DMSO control (RT-PCR) (percentage points); higher = more exon inclusion; settings: concentration: not stated (optimised per compound); Neuro-2a
# Protocol: (§1)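 Reads PSI of the Mef2d reporter microexon and of endogenous mouse neural alternative exons. dPSI is relative to the 0.4% DMSO control, single replicate.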
# [4] = system: Mgrn1 alternative exon (endogenous); test: as above; settings: concentration: not stated (optimised per compound); Neuro-2a
# Protocol: as §1
# [5] = system: Asph alternative exon (endogenous); test: as above; settings: concentration: not stated (optimised per compound); Neuro-2a
# Protocol: as §1
# [6] = system: Trappc9 microexon (endogenous); test: as above; settings: concentration: not stated (optimised per compound); Neuro-2a
# Protocol: as §1
# 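Throughout, for B-score of Nano/Firefly luminescence ratio, V2 Mef2d microexon reporter: compounds at 4 µM (PKI library 0.5 µM) on Dox-inducible N2A Flp-In cells with PEST-tagged luciferases, 384-well plates, B-score from per-plate median-polish residual over median absolute residual.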
# 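Throughout, for delta PSI of alternative exon relative to 0.4% DMSO control (RT-PCR): exons read include endogenous Mef2d, Mast2, Ergic3 and Trappc9 microexons plus the longer neural-regulated Zdhhc20, Mgrn1 and Asph cassette exons, alongside the reporter microexon.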
structure (smiles),measurement,setting,value
O=[N+]([O-])c1ccc(N2CCc3ccccc3C2)c2ccncc12 (4 µM),B-score,[1],-0.923
same,B-score,[2],-5.43
CC(=O)OC(C)(C)C=CC(=O)[C@](C)(O)[C@H]1[C@H](O)C[C@@]2(C)[C@@H]3CC=C4[C@@H](CC[C@H](O)C4(C)C)[C@]3(CO)C(=O)C[C@]12C (4 µM),B-score,[1],33.7
same,B-score,[2],6.14
O=C1NC(=O)C(=CC=Cc2ccccc2)C(=O)N1 (4 µM),B-score,[1],-4.22
same,B-score,[2],-3.51
N#CC(C#N)=Cc1ccc(Cl)c([N+](=O)[O-])c1 (4 µM),B-score,[1],-0.981
same,B-score,[2],-6.27
COc1cc(CN2CCN(c3cccc(Cl)c3)CC2)ccc1O (4 µM),B-score,[1],2.8
same,B-score,[2],5.3
C[N+]1(C)[C@@H]2CC[C@H]1C[C@@H](OC(=O)C(CO)c1ccccc1)C2 (some centres not stated) [Atropine methyl bromide] (4 µM),B-score,[1],-8.27
same,B-score,[2],-5.87
CCOc1cc(CN2CCN(c3cccc(Cl)c3)CC2)ccc1O (4 µM),B-score,[1],1.94
same,B-score,[2],4.95
CN1C(=O)C(=CNc2ccc(Cl)cc2)C(=O)N(C)C1=O (4 µM),B-score,[1],4.81
same,B-score,[2],1.31
CC(=O)OC(C)(C)C=CC(=O)[C@](C)(O)[C@H]1[C@H](O)C[C@@]2(C)[C@@H]3CC=C4[C@@H](CC[C@H](O)C4(C)C)[C@]3(CO)C(=O)C[C@]12C,delta PSI of alternative exon,[3],3.16
same,delta PSI of alternative exon,[4],7.74
CCn1cnc2c(Nc3cccc(Cl)c3)nc(N[C@@H]3CCCC[C@@H]3N)nc21 (4 µM),B-score,[1],10.7
same,B-score,[2],3.51
COc1ccc(C=C[N+](=O)[O-])cc1OC (4 µM),B-score,[1],5.06
same,B-score,[2],8.54
CN1C[C@@H](NS(=O)(=O)N(C)C)C[C@@H]2c3cccc4[nH]cc(c34)C[C@H]21 [Compound 71] (0.5 µM),B-score,[1],-5.67
same,B-score,[2],-10
Cc1[nH]nc2ccc(-c3cncc(OC[C@@H](N)Cc4c[nH]c5ccccc45)c3)cc12 (0.5 µM),B-score,[1],9.86
same,B-score,[2],6.21
CC[C@H]1CN2CCc3cc(OC)c(OC)cc3[C@@H]2C[C@@H]1C[C@H]1NCCc2cc(OC)c(OC)cc21 [Emetine dihydrochloride hydrate] (4 µM),B-score,[1],-2.77
same,B-score,[2],-7.95
O=C1NC(=O)C(=CC=Cc2ccccc2)C(=O)N1,delta PSI of alternative exon,[5],-0.692
same,delta PSI of alternative exon,[6],0.958
O=C1C=C2C=C[C@@H]3C[C@@]2(O1)[C@H]1CCCCN31 [Securinine] (4 µM),B-score,[1],-3.71
same,B-score,[2],-5.84
COc1cc2c(c(OC)c1OC)-c1ccc(OC)c(=O)cc1[C@@H](NC(C)=O)CC2 [Colchicine] (4 µM),B-score,[1],-4.32
same,B-score,[2],-9.14
CC1(C)C(Br)=C(Br)C(=O)C1(Br)Br (4 µM),B-score,[1],0.028
same,B-score,[2],-7.76
COc1ccc(/C=C/C=C2C(=O)NC(=O)NC2=O)cc1,delta PSI of alternative exon,[5],0.164
same,delta PSI of alternative exon,[6],-2.7
Cc1c(Cc2ccc(F)cc2)c(=O)oc2cc(OC(=O)N(C)C)ccc12 (4 µM),B-score,[1],2.59
same,B-score,[2],4.49
COc1ccc(/C=C/C=C2C(=O)NC(=O)NC2=O)cc1 (4 µM),B-score,[1],-1.45
same,B-score,[2],-6.64
CNC(=O)ON=C(N)Cc1csc2ccc(Cl)cc12 (4 µM),B-score,[1],13.5
same,B-score,[2],2.82
CC(=O)C1=C(O)[C@@H]2[C@H]3c4c[nH]c5cccc(c45)C[C@H]3C(C)(C)N2C1=O [Cyclopiazonic Acid] (4 µM),B-score,[1],10.5
same,B-score,[2],4.78
CNC(=O)ON=C(N)Cc1csc2ccccc12 (4 µM),B-score,[1],6.41
same,B-score,[2],2.51
C[C@@H]1C[C@@H]([C@H](O)CC2CC(=O)NC(=O)C2)C(=O)[C@@H](C)C1 [Cycloheximide] (4 µM),B-score,[1],-7.34
same,B-score,[2],-8.4
Cc1ccc2c(c1)Cc1c(C(=O)NN3CCCCC3)nn(-c3ccc(Cl)cc3Cl)c1-2 (4 µM),B-score,[1],4.44
same,B-score,[2],5.96
C=C(C)[C@H]1Cc2c(ccc3c2O[C@@H]2COc4cc(OC)c(OC)cc4[C@@H]2C3=O)O1 [Rotenone] (4 µM),B-score,[1],-9.22
same,B-score,[2],-17.1
C[C@@H]1CC[C@H]2[C@@H](C)C(=O)O[C@@H]3O[C@@]4(C)CC[C@@H]1[C@]32OO4 [Artemisinin] (4 µM),B-score,[1],6.07
same,B-score,[2],5.49
COc1ccc2c(c1)[nH]c1c(C)nccc12 [Harmine hydrochloride] (4 µM),B-score,[1],3.37
same,B-score,[2],5.6
Cc1n[nH]c2ccc(-c3cncc(OC[C@@H](N)Cc4c[nH]c5ccccc45)c3)cc12,delta PSI of alternative exon,[3],15.6
same,delta PSI of alternative exon,[4],4.46
CCOc1c(I)cc(I)cc1C=C(C#N)C#N (4 µM),B-score,[1],-1.69
same,B-score,[2],-5.03
